From PubChem BioAssay AID1645882 (National Center for Advancing Translational Sciences (NCATS), 2021)
The campaign covered roughly 16,000 compounds. About 120 (0.75%) were called active. Not shown: some 4% with an inconclusive outcome. Calls come from the whole dose curve; as a rule, active = well fitted inhibition curve with a large enough effect; inconclusive = small, poorly fitted or top-dose-only effect; inactive = no such curve, though single readings can be large or run the other way. The list shows a part of the results.

Biological target: Rap guanine nucleotide exchange factor 3 (Homo sapiens) (UniProt O95398)
UniProt O95398, sequence (O95398 whole entry, looked up): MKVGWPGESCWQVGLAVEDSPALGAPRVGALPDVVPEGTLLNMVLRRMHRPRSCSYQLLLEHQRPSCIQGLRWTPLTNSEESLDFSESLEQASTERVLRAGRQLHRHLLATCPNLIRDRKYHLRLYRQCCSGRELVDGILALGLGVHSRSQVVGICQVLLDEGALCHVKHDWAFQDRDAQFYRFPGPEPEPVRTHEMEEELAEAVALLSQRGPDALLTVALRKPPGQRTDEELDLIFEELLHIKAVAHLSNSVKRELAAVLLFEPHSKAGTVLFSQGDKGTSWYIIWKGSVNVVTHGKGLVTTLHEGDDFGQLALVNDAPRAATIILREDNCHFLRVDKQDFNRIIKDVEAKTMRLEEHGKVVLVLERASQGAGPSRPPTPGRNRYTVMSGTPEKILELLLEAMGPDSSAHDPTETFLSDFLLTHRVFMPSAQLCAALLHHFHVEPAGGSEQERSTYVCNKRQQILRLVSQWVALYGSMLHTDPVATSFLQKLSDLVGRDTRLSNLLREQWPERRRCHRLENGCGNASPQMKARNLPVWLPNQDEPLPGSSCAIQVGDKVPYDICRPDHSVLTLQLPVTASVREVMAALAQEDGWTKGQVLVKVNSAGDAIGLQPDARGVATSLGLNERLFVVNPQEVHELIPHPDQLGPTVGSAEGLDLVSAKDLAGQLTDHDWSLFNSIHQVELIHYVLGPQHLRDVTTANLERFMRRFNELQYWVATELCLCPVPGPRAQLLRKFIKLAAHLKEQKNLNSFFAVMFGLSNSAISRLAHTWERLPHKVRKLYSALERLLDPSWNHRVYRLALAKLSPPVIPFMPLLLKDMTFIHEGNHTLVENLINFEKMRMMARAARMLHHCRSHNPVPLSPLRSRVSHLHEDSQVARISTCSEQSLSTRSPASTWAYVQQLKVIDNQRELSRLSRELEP
Test: Validation qHTS for antagonist of cAMP-regulated guanine nucleotide exchange factor 3 (EPAC1);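 note: plate controls were DMSO for no effect and ATA control for full effect; nearly all actives have a fitted effect of over 75% in size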
Conditions: EPAC1 Rap1B-BODIPY-GDP exchange, fluorescence; series mostly up to 150 µM; activity change, negative = inhibition: at the top concentration
Outline: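 EPAC1 (100 nM) mixed with 250 nM RAP1B-BODIPY-GDP and 50 uM GDP; compounds in concentration series, 5 min at room temperature. Fluorescence (ex 480/em 540 nm) read every 5 min for 30 min; normalized to ATA control and DMSO.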

SMILES	activity change, negative = inhibition
O=C(OCC(O)CO)c1ccccc1Nc1ccnc2cc(Cl)ccc12 (stereo not drawn)	inactive
CC(=O)C[C@H]1c2cc(C(F)(F)F)ccc2S(=O)(=O)N1Cc1ccccc1	inactive: -8.21%
O=C(NCc1cccnc1)[C@@H]1CC=C[C@@H]2CCN(Cc3ccc(Cl)c(Cl)c3)C(=O)[C@@H]21	inactive: 0.262%
CCCC1OC2CC3C4CCC5=CC(=O)C=CC5(C)C4C(O)CC3(C)[C@]2(C(=O)CO)O1 (stereo partly drawn)	inactive: -5.21%
CCNc1ncc2nc(-c3cc(F)cc(F)c3)c(=O)n(C[C@H]3CCCO3)c2n1	inactive: 2.14%
COc1cc(N)c(Cl)cc1C(=O)OCCCN1CCCCC1	inactive: 4.94%
COc1ccccc1CNc1ccnc(-c2ccccc2OC)n1	inactive: -19.7%
CC(C(=O)O)c1ccc(-c2ccccc2)c(F)c1 (stereo not drawn)	inactive
N=C(N)c1ccc(OCCCOc2ccc(C(=N)N)cc2Br)c(Br)c1	inactive: 39%
O=c1c(-c2ccc(F)cc2)nc2cnc(Oc3ccccc3)nc2n1Cc1cccs1	inactive: 15.5%
C=C1C(C2(C)C=CC(=O)C(C)(C)C2CC(=O)OC)CC[C@@]2(C)C(c3ccoc3)OC(=O)C3OC132 (stereo partly drawn)	inactive: -4.03%
CN(C)CC(C)(O)c1ccc2c(c1)CN(C(=O)c1ccc(-n3cccn3)cc1)CCO2 (stereo not drawn)	inactive: 13.3%
O=C(c1cnccn1)N1CCC2(CC1)CCN(c1ccccn1)CC2	inactive: 10.1%
COC(=O)C1CCN(Cc2ccc3c(c2)CN(C(=O)c2cc(C)nc(C)n2)CCO3)CC1	inactive: 7.35%
COc1cc2c(N3CCN(C(=O)Nc4ccc(OC(C)C)cc4)CC3)ncnc2cc1OCCCN1CCCCC1	inactive: 12.9%
CCCN1CCC(=O)N(CCSc2ccccc2)CC1	inactive: 12.6%
NC(=O)c1cn(Cc2c(F)cccc2F)nn1	inactive
Cc1ccnc2c(N)cccc12	inactive: 26.9%
Cc1cc(O)c2c(c1)C(=O)c1cccc(O)c1C2=O	inactive
O=S1(=O)CCO[C@H]2Cc3ccccc3[C@H]2N1Cc1ccc(F)cc1	inactive: -11.1%
c1csc(CNc2nc(CN3CCCC(c4nc5ccccc5o4)C3)nc3ccccc23)c1 (stereo not drawn)	inactive: 10.8%

SMILES	activity change, negative = inhibition
Cc1noc(C)c1-c1cc(N2CCNCC2)ncn1	inactive: -16.8%
NC(=O)c1ccc[n+]([C@@H]2OC(COP(=O)([O-])OP(=O)(O)OCC3OC(n4cnc5c(N)ncnc54)C(OP(=O)(O)O)C3O)C(O)C2O)c1 (stereo partly drawn)	inactive: -1.32%
COc1cccc(-c2nc(N(C)Cc3ccco3)c3ccccc3n2)c1	inactive: -18.3%
COc1ccc(C2(C#N)CCC(C(=O)O)CC2)cc1OC1CCCC1 (stereo not drawn)	inactive: 14.5%
Cc1c(C(=O)NCC2COCCO2)cnn1-c1ncc2c(n1)-c1ccccc1CC2 (stereo not drawn)	inactive: 4.89%
Cc1noc(C)c1-c1nc(Nc2ccccc2)c2ccccc2n1	inactive: 10.9%
C[C@H](CCC(=O)O)[C@H]1CC[C@H]2[C@@H]3[C@H](O)C[C@@H]4C[C@H](O)CC[C@]4(C)[C@H]3C[C@H](O)[C@]12C	inactive: 9.24%
O=c1c(O)c(-c2cccc(O)c2)oc2ccccc12	inactive: 4.73%
O=c1ccc2cc(O)c(O)cc2o1	inactive: 3.93%
COc1ccc(CCN(C)CCCN2CCc3cc(OC)c(OC)cc3CC2=O)cc1OC	inactive: 17.2%
Cc1cn(C2OC[C@@H](O)[C@@H]2CO)c(=O)[nH]c1=O (stereo partly drawn)	inactive: 2.55%
C=C1C(CCl)(CCl)C2(Cl)C(Cl)C(Cl)C1(Cl)C2(Cl)Cl (stereo not drawn)	inactive: 7.12%
CC(C)c1cc2c(cc1S(=O)(=O)O)[C@@]1(C)CCC[C@@](C)(C(=O)O)[C@@H]1CC2	inactive: 19.8%
CC(C)CN1CCC(=O)N([C@H](CN=[N+]=[N-])Cc2ccccc2)CC1	inactive: 1.51%
N#Cc1cccc(NC(=O)N2CCCC3(CCN(C(=O)c4ccncc4)CC3)C2)c1	inactive: 21.9%
COc1ccc(CNc2ncnc3ccc(-c4c(C)noc4C)cc23)c(OC)c1	inactive: -14.7%
FC(F)(F)c1ccccc1-c1cncnc1NCCc1cnc[nH]1	inactive: 3.78%
COC(=O)c1cc(CNC(=O)c2ccc3ccccc3n2)cc(NC(=O)c2cccc(OC)c2)c1	inactive: 6.6%
COc1ccc(NC(=O)[C@@H]2CC=C[C@@H]3CCN(Cc4ccccc4)C(=O)[C@@H]32)cc1	inactive: 11.1%
COc1ccc(CNc2ncnc3ccc(-c4cccc(C#N)c4)cc23)c(OC)c1	inactive: -6.31%
CN(C)C(=O)C(CCN1CCC(O)(c2ccc(Cl)cc2)CC1)(c1ccccc1)c1ccccc1	inactive

SMILES	activity change, negative = inhibition
O=C(c1ccccc1C(F)(F)F)N1CCOc2c(cc(-c3nc4ccccc4s3)cc2OC2CCOC2)C1 (stereo not drawn)	inactive: 3.01%
COc1cccc(CNC(=O)c2cnn(-c3ncc4c(n3)-c3ccccc3CCC4)c2C)c1OC	inactive: 12.6%
O=C(Nc1ccccc1)N1CCCC2(CCN(C(=O)c3ccco3)CC2)C1	inactive: 19.1%
COc1ccccc1N1CCN(c2nc(CNC(=O)C3CCOC(C)(C)C3)nc3ccccc23)CC1 (stereo not drawn)	inactive: -7.79%
NCC1OC(O[C@H]2[C@H](O)[C@@H](OC3C(O)C(N)CC(N)C3OC3OC(CO)C(O)C(O)C3N)O[C@@H]2CO)C(N)C(O)C1O (stereo partly drawn)	inactive: 11.4% [at 75.8 µM]
COc1cc(=O)n2c(c1C(=O)NC(C)c1ccco1)CCN(CC=C(C)C)CC2 (stereo not drawn)	inactive: 7.49%
c1nc(N2CCOCC2)c2cc(-c3ccoc3)ccc2n1	inactive: 3.27%
COc1cccc(Cn2c(=O)c(-c3cccs3)nc3cncnc32)c1	inactive: 4.2%
CC[N+](CC)(CC)CCOc1ccc(/C=C/c2ccccc2)cc1	inactive
Cc1ccccc1C(=O)Nc1ccc(C(=O)N2CCCC(O)c3cc(Cl)ccc32)c(C)c1 (stereo not drawn)	inactive: 10.2%
COc1ccccc1N1CCN(CCN2C(=O)c3ccccc3C(C)(C)C2=O)CC1	inactive
COc1ccc(CN2[C@@H](CC(=O)O)c3ccccc3S2(=O)=O)cc1	inactive: 4.57%
COc1ccc(-c2nc3cnc(N4CCOCC4)nc3n(Cc3cccs3)c2=O)cc1	inactive: -0.691%
CC(=O)O[C@H]1CC[C@@]2(C)C(=CC[C@@H]3[C@@H]2CC[C@]2(C)C(c4cccnc4)=CC[C@@H]32)C1	inactive: 29.3%
O=C(O)c1ccc(OCCCOc2ccc(C(=O)O)cc2)cc1	inactive: 22.1%
Cc1cccc(C)c1NC(=O)CC12CCCN1CCC2	inactive: 10.7%
CCc1cc(C(=O)NCC2Cc3cc(-c4ccccc4C(C)=O)ccc3O2)no1 (stereo not drawn)	inactive: 13.2%
COc1ccc(C(=O)N2CCC3(CC2)CN(c2ccncc2)C3)cc1	inactive: 10%
Cc1ccc2ccccc2[n+]1CCCCI	inactive: 23.5%
O=C(c1ccccc1)c1ccc(Cn2cc(-c3ccccc3)nn2)cc1	inactive: 2.27%
COc1ccc(OC)c2c(/C=C/c3c(C)[nH]c4ccccc34)ccnc12	inactive: 8.38%
